Where “and” joins values, the source holds several entries; their conditions need not be identical. Equal entries are not always repeated. Out of some 420,000 compounds screened, about 64,000 (15%) were called active. The shares of active, inactive and inconclusive entries below differ from those in the screen. Calls follow the shape of the dose curve; as a rule, active = well fitted inhibition curve with a large enough effect; inconclusive = small, poorly fitted or top-dose-only effect; inactive = flat fitted curve, though single readings scatter. Potencies of inconclusive entries are doubtful fits and often do not repeat.
experiment: qHTS for Inhibitors of human tyrosyl-DNA phosphodiesterase 1 (TDP1): qHTS in cells in absence of CPT; settings: DT40 Tdp1-/- hTDP1 cells, no CPT, ATP luminescence, 48 h; activity change, negative = growth inhibition: at 46.2 µM (top of the series); also: nearly all actives have a fitted effect of over 55% in size
How it was run: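 DT40 Tdp1-/-;hTDP1 cells, no CPT (DMSO vehicle only), 400 cells/well; compounds pin-transferred; ≥48 hr, 37 °C; CellTiter-Glo 30 min RT dark, luminescence read.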
% is scaled to controls: 0 for no effect and ±100 for the full control effect; potency is read from the fitted curve at half-maximal effect; tags tell the direction and shape of the fitted curve.

For CCCc1[nH]nc2c1C(c1ccc(OC(=O)c3ccco3)cc1)C(C#N)=C(N)O2 (centres undefined), which Potency is on record?
Its Potency is inconclusive: 29.1 µM [inhibitor, single point].

For O=C(CN1C(=O)NC2(CCCCC2)C1=O)NCCc1ccccc1, which “activity change, negative = growth inhibition” value is on record?
The value was inactive: 17.2%.

Which Potency does the source give for CC(C)(C)CC(C)(C)N=C1Nc2ccccc2NC12C[C@H]1CCC(=O)N3CC[C@@H](C2)[C@@H]13 (some centres undefined) here?
The Potency was inconclusive: 22.4 µM [inhibitor, single point].

Which Potency does the source give for Clc1ccc(-c2csc3ncnc(Cl)c23)cc1 here?
The Potency was active: 16.4 µM.

Which Potency does the source give for CCS(=O)(=O)N1CCc2cc(C(=O)Nc3cccc(C)c3C)ccc21 here?
Its Potency is inconclusive: 20.6 µM [inhibitor, single point].

With CCCc1ccc(OC(=O)CSc2nnc(-c3cccs3)o2)cc1 as the compound, how does the “activity change, negative = growth inhibition” value read?
The value was inactive: 11.8%.

With COc1cccc(/C=C2/CN(C)CC3=C2OC(N)=C(C#N)C3c2cccc(OC)c2)c1 (centres undefined) as the compound, how does the Potency read?
Its Potency is active: 16.4 µM.

With O=C(CCCN1C(=O)c2cccc3cccc(c23)C1=O)NCc1ccco1 as the compound, how does the “activity change, negative = growth inhibition” value read?
The value was inactive: -18%.

With CCOc1ccc(S(=O)(=O)N2CCC(N3CCN(Cc4ccc(F)cc4)C(=O)C3=O)CC2)cc1 as the compound, how does the Potency read?
The Potency was inconclusive: 25.9 µM [inhibitor, single point].

With O=C(c1ccco1)N1CCC2(CC1)CN(c1ccccc1)C2 as the compound, how does the Potency read?
The Potency was inconclusive: 16.4 µM [inhibitor, partial curve, poor fit].

For COCCN1C(=O)c2ccc(C(=O)NCc3cccnc3)cc2C1=O, which activity change, negative = growth inhibition is on record?
The activity change, negative = growth inhibition was inconclusive: -38.6% [inhibitor].

With COc1ccc(N(CC(=O)NCc2cccnc2)S(=O)(=O)c2ccccc2)c(OC)c1 as the compound, how does the Potency read?
The Potency was inconclusive: 29.1 µM [inhibitor, single point].

Which Potency does the source give for COc1ccc(NC(=O)Cn2nnc(-c3ccccc3NC(=O)c3cccs3)n2)cc1 here?
Its Potency is inconclusive: 4.11 µM [inhibitor, full curve].

For O=C1NC(=S)S/C1=C/c1ccc(N2CCOCC2)o1, which Potency is on record?
Its Potency is inconclusive: 18.4 µM [inhibitor, single point].

With NS(=O)(=O)c1ccc(N/N=C/c2ccccn2)c([N+](=O)[O-])c1 as the compound, how does the Potency read?
Its Potency is inconclusive: 16.4 µM [inhibitor, single point].

For CCn1c(=O)c2c(cnn2C)c2ccccc21, which Potency is on record?
The Potency was inconclusive: 23.1 µM [inhibitor, partial curve].

For CCC(=O)Nc1ccc(N2CCOCC2)c(S(=O)(=O)Nc2ccc(OC)cc2)c1, which Potency is on record?
Its Potency is inconclusive: 13 µM [inhibitor, partial curve, poor fit].

Which activity change, negative = growth inhibition does the source give for COc1cc(C)c(C)cc1S(=O)(=O)N1CCN(Cc2ccc3c(c2)OCO3)CC1 here?
The activity change, negative = growth inhibition was inconclusive: -31.6% [inhibitor].

For COC(=O)/C(C#N)=C/c1cc(C)sc1C, which “activity change, negative = growth inhibition” value is on record?
Its value is inactive: -22.9%.

Which “activity change, negative = growth inhibition” value does the source give for O=C(CCn1cccn1)NCc1ccc(Cl)cc1 here?
Its value is inactive: -0.44%.

With CCOC(=O)C(CC)Sc1ncnc2sc3c(c12)CCCC3 (centres undefined) as the compound, how does the Potency read?
Its Potency is inconclusive: 23.1 µM [inhibitor, partial curve, poor fit].

With COc1ccc(C)c2sc(N3CCCC3)nc12 as the compound, how does the activity change, negative = growth inhibition read?
The activity change, negative = growth inhibition was inconclusive: -30.7% [inhibitor].

Which “activity change, negative = growth inhibition” value does the source give for O=C(O)CSc1c(-c2ccccc2)c2cc(Cl)ccc2[nH]c1=O here?
The value was inactive: -4.04%.

Which “activity change, negative = growth inhibition” value does the source give for Cc1ccc(S(=O)(=O)Nc2cccc(C(=O)NCC(C)(C)N3CCOCC3)c2)cc1F here?
Its value is inactive: -3.05%.

For COc1ccc(-c2csc(NC(=O)C3CC(=O)N(Cc4ccccc4)C3)n2)cc1OC (centres undefined), which Potency is on record?
The Potency was inconclusive: 25.9 µM [inhibitor, single point].

For Cc1ccc(N2C(N)=C(C#N)C(c3cccnc3)C3=C2CCCC3=O)cc1 (centres undefined), which Potency is on record?
The Potency was inconclusive: 16.4 µM [inhibitor, single point].

With CC(C)Oc1ccc(N2CC(C(=O)NC3=NCCS3)CC2=O)cc1 (centres undefined) as the compound, how does the “activity change, negative = growth inhibition” value read?
The value was inactive: -2.69%.

For CNc1ncncc1-c1ccccc1OC, which “activity change, negative = growth inhibition” value is on record?
The value was inactive: -18.8%.

With COc1cc(-c2c(-c3ccc4c(c3)OCO4)noc2-c2ccsc2)ccc1F as the compound, how does the Potency read?
Its Potency is inconclusive: 11.2 µM [inhibitor, partial curve, poor fit] and inconclusive: 8.2 µM [inhibitor, partial curve].

Which Potency does the source give for CCN1CCN(S(=O)(=O)c2ccc(Cl)c(C(=O)N(CC)Cc3ccccc3)c2)CC1 here?
Its Potency is inconclusive: 29.1 µM [inhibitor, single point].

For O=c1[nH]c(/C=C2\C=Nc3ccccc32)c(O)n1Cc1ccccc1F, which Potency is on record?
Its Potency is inconclusive: 18.4 µM [inhibitor, single point].

For CCN(CC(=O)NCc1ccc(Cl)cc1)C(=O)CSc1ccc(F)cc1, which Potency is on record?
The Potency was inconclusive: 20.6 µM [inhibitor, partial curve].

For COc1ccc(C(=O)N/C(=C/c2cccnc2)C(=O)N2CCCCCC2)cc1OC, which “activity change, negative = growth inhibition” value is on record?
Its value is inactive: 4.05%.

With CCc1ccc(N2C=C(C(=O)OC)C(c3ccccc3F)C(C#N)=C2N)cc1 (centres undefined) as the compound, how does the Potency read?
Its Potency is active: 23.1 µM.

With CC(=NO)C1(C)CC=CCC1CO (centres undefined) as the compound, how does the Potency read?
The Potency was inconclusive: 18.4 µM [inhibitor, partial curve, poor fit].

With CCc1cc(C(=O)Nc2ccc(S(=O)(=O)NC3=NCCCCC3)cc2)sc1C as the compound, how does the Potency read?
The Potency was inconclusive: 29.1 µM [inhibitor, partial curve, poor fit].

Which Potency does the source give for Cc1ccc(Oc2nc3c(C)cccn3c(=O)c2/C=C(\C#N)C(N)=O)cc1 here?
The Potency was active: 13 µM.

Which Potency does the source give for COc1cc(/C=N/O)ccc1OCc1ccccc1Cl here?
The Potency was inconclusive: 29.1 µM [inhibitor, single point].

With COc1cccc(-c2cc(C(F)(F)F)n3nc(N)nc3n2)c1 as the compound, how does the Potency read?
Its Potency is inconclusive: 23.1 µM [inhibitor, single point].

With COc1cccc(COC(=O)C(Cc2ccccc2)NC(=O)c2ccco2)c1 (centres undefined) as the compound, how does the “activity change, negative = growth inhibition” value read?
The value was inactive: 6.28%.

With Cc1cccc(C(=O)NCCNC(=O)c2cccc(C)c2)c1 as the compound, how does the Potency read?
Its Potency is active: 29.1 µM.

Which activity change, negative = growth inhibition does the source give for C/C=C/c1ccc(OCCNCc2ccccc2)c(OC)c1 here?
Its activity change, negative = growth inhibition is inconclusive: -32.4% [inhibitor].

For CCCc1c(-c2cccc(Br)c2)ncn1Cc1cccc(-c2ccccc2)c1, which Potency is on record?
Its Potency is active: 20.6 µM.

Which Potency does the source give for Cc1cccc(C(=O)Oc2ccc(/C=N/NC(=O)c3ccccc3O)cc2)c1 here?
The Potency was inconclusive: 10.3 µM [inhibitor, partial curve, poor fit].

Which “activity change, negative = growth inhibition” value does the source give for Cc1[nH]cnc1CSCCN here?
Its value is inactive: -10.4%.

For CN(C)C(=O)c1ccc(NC(=O)CN2C(=O)NC3(CCCc4ccccc43)C2=O)cc1 (centres undefined), which “activity change, negative = growth inhibition” value is on record?
Its value is inactive: 1.35%.

Which Potency does the source give for C/C(=N/Nc1nc(-c2ccc(Cl)cc2)cs1)c1cccs1 here?
The Potency was inconclusive: 10.3 µM [inhibitor, partial curve, poor fit].

With CCOc1cc(NCc2ccccc2)c2ncn(C(C)C)c2c1 as the compound, how does the Potency read?
Its Potency is active: 23.1 µM.

With Oc1ccc(C[C@@H]2CNC(=S)N2CCc2cc(C(F)(F)F)cc(C(F)(F)F)c2)cc1 as the compound, how does the Potency read?
Its Potency is inconclusive: 18.4 µM [inhibitor, single point].

For O=C(COC(=O)c1ccc(Br)cc1)NCc1ccccc1, which “activity change, negative = growth inhibition” value is on record?
The value was inactive: -20.4%.

With CCc1nc2ccc(C(=O)NCc3ccc(OC)cc3)cn2c1N(CC)Cc1cccc(Br)c1 as the compound, how does the Potency read?
The Potency was inconclusive: 23.1 µM [inhibitor, partial curve, poor fit].

Which Potency does the source give for COC(=O)c1c(-c2ccccc2)oc2c1C(OCCO)CCC2 (centres undefined) here?
Its Potency is inconclusive: 20.6 µM [inhibitor, partial curve, poor fit].

Which Potency does the source give for CCc1nc2c(OCc3ccc(C(F)(F)F)cc3)cccn2c1N(C)C(=O)c1ccc(OC)cc1 here?
The Potency was active: 13 µM.

For O=C(OCCN(C1=NS(=O)(=O)c2ccccc21)c1ccccc1Cl)c1ccc(Cl)cc1, which Potency is on record?
The Potency was inconclusive: 23.1 µM [inhibitor, single point].

For CCN(CC)CCCNC(=O)c1ccc2c(c1)N(Cc1c(F)cccc1Cl)C(=O)c1ccccc1S2, which Potency is on record?
Its Potency is active: 14.6 µM.

With N#CCCn1c(=O)c(-c2ccccc2)nc2cnc(Oc3cccc(Cl)c3)nc21 as the compound, how does the Potency read?
Its Potency is inconclusive: 0.0291 µM [inhibitor, full curve, poor fit].

Which Potency does the source give for N#Cc1c[nH]n2c(NC3CCCCC3)c(-c3ccccc3F)nc12 here?
Its Potency is inconclusive: 23.1 µM [inhibitor, single point].

For Cc1c(-c2nsc(NC(=O)c3cccs3)n2)nnn1-c1ccc(Cl)cc1, which Potency is on record?
The Potency was inconclusive: 13 µM [inhibitor, single point].

For CC(C)CC1C(=O)N(Cc2cn(CCC3OCCCO3)nn2)CCS(=O)(=O)N1Cc1ccc(-c2ccncc2)cc1 (centres undefined), which Potency is on record?
The Potency was active: 18.4 µM.

Which activity change, negative = growth inhibition does the source give for O=C1c2ccccc2CC1(Cc1ccccc1)Cc1ccccc1 here?
The activity change, negative = growth inhibition was inconclusive: -32.8% [inhibitor].

For COc1ccc(S(=O)(=O)Nc2cc(Sc3ncn[nH]3)c(O)cc2C)cc1, which Potency is on record?
The Potency was inconclusive: 3.66 µM [inhibitor, full curve].

For COc1cc(NC(=O)CNC(=O)Cn2cnc3sc(C)c(C)c3c2=O)cc(OC)c1OC, which Potency is on record?
The Potency was inconclusive: 29.1 µM [inhibitor, single point].

With COC(=O)[C@]1(Cc2ccccc2)N[C@H](CN(C)S(=O)(=O)c2ccc(OC(F)(F)F)cc2)[C@@H]2C(=O)N(Cc3ccccc3)C(=O)[C@@H]21 as the compound, how does the Potency read?
The Potency was inconclusive: 29.1 µM [inhibitor, single point].

Which “activity change, negative = growth inhibition” value does the source give for Cc1cc(SCC(=O)OCC(=O)N(C)c2ccccc2)nc2ccccc12 here?
The value was inactive: -16.6%.

With O=C(NCCc1ccc(Cl)cc1)C(=O)NCC(c1ccco1)S(=O)(=O)c1cccs1 (centres undefined) as the compound, how does the Potency read?
Its Potency is inconclusive: 29.1 µM [inhibitor, single point].

For O=C(Nc1cccc(-c2cscn2)c1)C1CCN(Cc2ccc(CO)o2)CC1, which Potency is on record?
Its Potency is inconclusive: 29.1 µM [inhibitor, single point].

Which Potency does the source give for COCCn1c(=O)c2c(nc3n2CCCN3CCc2ccc(OC)c(OC)c2)n(C)c1=O here?
The Potency was inconclusive: 10.3 µM [inhibitor, partial curve].

Which Potency does the source give for COc1cccc(CNc2ccc([N+](=O)[O-])cc2Cl)c1O here?
The Potency was inconclusive: 29.1 µM [inhibitor, single point].

For C#CCN1C(=O)C(O)(CC(=O)c2ccc(OC)c(OC)c2)c2cc(Br)ccc21 (centres undefined), which Potency is on record?
The Potency was active: 6.51 µM.
